“And” between values parts separate entries of the source, which are not always exact repeats. Identical values can stand only once. About 2,100 (0.72%) of roughly 290,000 compounds were called active. Inconclusive means that the source gave no clear call. Such entries were picked first, then a sample of the others. The call rests on the fitted dose curve; in most records, active means well fitted inhibition curve with a large enough effect; inconclusive means small, poorly fitted or top-dose-only effect, or effect the other way; inactive means flat fitted curve, though single readings scatter. Potencies beside an inconclusive call are fits to weak or partial responses and may not hold up.
What follows are compounds tested against Fructose-bisphosphate aldolase (Giardia intestinalis (strain ATCC 50803 / WB clone C6)) (UniProt A8B2U2) (assay: qHTS Assay for Inhibitors of Fructose-1,6-bisphosphate Aldolase from Giardia Lamblia). Conditions: purified Giardia FBPA; activity, negative = inhibition: at 59.6 µM (top of the series) unless noted.
Sequence of UniProt A8B2U2 (A8B2U2 whole entry, looked up): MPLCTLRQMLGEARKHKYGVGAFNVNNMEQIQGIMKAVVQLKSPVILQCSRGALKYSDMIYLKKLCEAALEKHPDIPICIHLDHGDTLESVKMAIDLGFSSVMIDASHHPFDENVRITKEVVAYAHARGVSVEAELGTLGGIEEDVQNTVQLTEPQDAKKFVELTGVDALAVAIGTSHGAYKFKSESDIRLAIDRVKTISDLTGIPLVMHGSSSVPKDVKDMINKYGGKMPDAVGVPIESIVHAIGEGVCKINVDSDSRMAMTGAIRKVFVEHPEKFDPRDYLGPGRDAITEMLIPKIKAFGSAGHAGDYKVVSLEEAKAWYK
How it was run: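 40 nM FBPA preincubated 10 min at RT with compound (up to 57.5 uM final), then substrate plus GAPDH/TPI/NAD/arsenate coupling and diaphorase/resazurin added. Fluorescence read after 20 min at RT, 525/598 nm.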
Further: nearly all actives have a fitted effect of over 55% in size.
On the % scale 0 is the no-effect control and ±100 the full control effect; potency means the concentration at half of the fitted maximal effect; tags describe the fitted curve by direction and shape.

SMILES | Potency | activity, negative = inhibition
COC(=O)c1cc(O)cc(OC)c1Oc1cc(C)cc(O)c1C(=O)O | inconclusive: 15.8 µM [inhibitor, partial curve] | 
COc1ccc2c(c1)C(=C(C#N)C#N)C(=O)N2CCc1ccccc1 | active: 2.51 µM | 
c1cncc(CNc2ccc3c(c2)OCO3)c1 | inconclusive: 9.98 µM [inhibitor, partial curve] | 
CC(C)OCCCNc1ncc2c(n1)CC(c1ccccc1)CC2=O (stereo not given) | inconclusive: 7.92 µM [inhibitor, partial curve] | 
CCOC(=O)N1CCN(c2c(Nc3ccc4c(c3)OCCO4)c(=O)c2=O)CC1 | inconclusive: 22.3 µM [inhibitor, single point] | 
O=C(CO)N/N=C/c1cccc(Cl)c1Cl |  | inactive: 2.53%
O=C(N/N=C/c1cccnc1)c1ccccc1OCc1ccc(Br)cc1 | inconclusive: 22.3 µM [inhibitor, partial curve] | 
CCN1CCN(C(c2cccnc2)c2cc(Cl)c3cccnc3c2O)CC1 (stereo not given) | inconclusive: 15.8 µM [inhibitor, partial curve] | 
COc1ccc(C(C)=O)cc1Cc1c(O)[nH]c(=S)[nH]c1=O | inconclusive: 25.1 µM [inhibitor, single point] | 
CC(CCc1ccccc1)N1CCN(C)CC1 (stereo not given) | inconclusive: 20 µM [inhibitor, partial curve] | 
COC(=O)c1cc2c(C)cc3ccc(C)cn3c-2c1C(=O)OC |  | inactive: -13.9%
CC(=O)N1CCN(c2ccc(OCC3CO[C@@](Cn4ccnc4)(c4ccc(Cl)cc4Cl)O3)cc2)CC1 (stereo not given in full) |  | inactive: 12.5%
CCC(=O)OCCNc1cc(Sc2nc3ccccc3[nH]2)c2nonc2c1[N+](=O)[O-] | inconclusive: 7.92 µM [inhibitor, partial curve] | 
CC(C)=CCC/C(C)=C/Cc1c(O)ccc(C(=O)/C=C/c2ccc(O)cc2)c1O |  | inactive: 0.377%
O=C(O)CC(Sc1n[nH]c(=S)s1)C(=O)O (stereo not given) | active: 4.46 µM | 
C[C@](N)(Cc1ccc(O)c(O)c1)C(=O)O | active: 17.7 µM | 
O=C(O)c1ccc2c(c1)C1C=CCC1C(c1ccncc1)N2 (stereo not given) | inconclusive: 14.1 µM [inhibitor, partial curve] | 
COc1ccccc1C(=O)N1CCN(Cc2c[nH]c3ccccc23)CC1 | inconclusive: 20 µM [inhibitor, single point] | 
Clc1ccc(OCc2cn3ccccc3n2)c2ncccc12 | inconclusive: 15.8 µM [inhibitor, single point] | 
CN(CCC#N)C(=O)COC(=O)c1c2c(nc3ccccc13)/C(=C/c1ccco1)CC2 | inconclusive: 17.7 µM [inhibitor, partial curve] | 
COc1ccc(/C(O)=C2\C(=O)C(=O)N(c3cc(C)on3)C2c2ccccc2OC)cc1 (stereo not given) |  | inactive: 23.3%
CC1(C(=O)O)CCC(C(=O)NNC(=O)c2ccccc2O)C1(C)C (stereo not given) | inconclusive: 12.6 µM [inhibitor, partial curve] | 
COn1c(C)c(C)c2c3nonc3ccc21 | inconclusive: 3.54 µM [inhibitor, partial curve] | 
CC1CN(S(=O)(=O)c2ccc(C(=O)Nc3nnc(-c4ccccn4)o3)cc2)CC(C)O1 (stereo not given) | inconclusive: 17.7 µM [inhibitor, partial curve] | 
Cc1cccc(C(=O)O/N=C2\CCCc3ccccc32)c1 |  | inactive: 0.239%

SMILES | Potency | activity, negative = inhibition
N=C1SCC(=O)N1c1ncc(Cc2ccccc2Cl)s1 | inconclusive: 5.61 µM [inhibitor, single point] | 
CCC(CC)NCc1ccc2c(c1)c1ccccc1n2CC | inconclusive: 15.8 µM [inhibitor, partial curve] | 
COc1ccc(-c2nnc(NC(=O)c3ccc4c(c3)OCCO4)o2)cc1 | inconclusive: 31.6 µM [activator, single point] | 
CCOc1cc(/C=N/Nc2nc(C)cc(=O)[nH]2)ccc1O |  | inactive: -12.2%
CCCN1CCN(C(=O)c2cc(COc3ccc4ncccc4c3)on2)CC1 |  | inactive: -7.93%
O=C(N/N=C/c1ccc(N2CCCCC2)o1)C(O)(c1ccccc1)c1ccccc1 |  | inactive: -26.5%
CCOC(=O)C(NC(=O)Nc1ccc(O)cc1)(c1ccccc1)C(F)(F)F (stereo not given) | inconclusive: 12.6 µM [inhibitor, partial curve] | 
COCCNC(=S)NN=C1CCCCC1 | inconclusive: 17.7 µM [inhibitor, single point] | 
Clc1ccc(N=c2ssnc2Cl)cc1 | inconclusive: 15.8 µM [inhibitor, single point] | 
COC(=O)CCC(=O)OC1(C)C(=O)C=C2C=C(C3CC3)N(Cc3ccco3)C=C2C1=O (stereo not given) | inconclusive: 630 nM [inhibitor, full curve] and inconclusive: 500 nM [inhibitor, full curve] | 
COc1cc(C2CC(=O)N3CN(Cc4ccccc4)CSC3=C2C#N)ccc1OCc1ccccc1 (stereo not given) | inconclusive: 1.99 µM [inhibitor, full curve] | 
CC(C)N1CCN(Cc2cccc([N+](=O)[O-])c2)CC1 | inconclusive: 14.1 µM [inhibitor, partial curve] | 
CCOC(=O)c1ccc(CC(=O)c2ccc(O)c(O)c2O)o1 | active: 11.2 µM | 
Cc1ccc(S(=O)(=O)NCc2ccco2)cc1C |  | inactive: 3.49%
C#CCSc1n[nH]c(-c2ccco2)n1 | inconclusive: 4.46 µM [inhibitor, full curve] | 
Fc1ccccc1Nc1nc2c(s1)CCc1ccccc1-2 | active: 19.9 µM | 
Cc1c(Cl)c([N+](=O)[O-])nn1CC(=O)N1CCCc2ccccc21 |  | inactive: -0.135%
CN1C2=CC=CC=CC2=[N+](C)C12C=CC(=[N+]([O-])[O-])C=C2[N+](=O)[O-] (stereo not given) | inconclusive: 7.06 µM [inhibitor, partial curve] | 
COc1ccccc1NC(c1cccnc1)c1ccc2cccnc2c1O (stereo not given) | inconclusive: 28.1 µM [inhibitor, single point] | 
[O-]/C(=C(\C(=S)Nc1cccc2ccccc12)[n+]1ccccc1)c1ccc(Cl)s1 | inconclusive: 9.98 µM [inhibitor, partial curve] | 
CC(/C=C/c1ccccc1)=N/O |  | inactive: 5.71%
Cc1ccc(SCCCCN2CCOCC2)cc1 | inconclusive: 31.6 µM [inhibitor, partial curve] | 
CCOC(=O)C(C(=O)OCC)c1cc(Br)c2noc3c2c1C(=O)c1ccccc1-3 | active: 0.354 µM | 
CC(C)(C)S(=O)(=O)c1cnc(-c2ccccn2)nc1N | inconclusive: 15.8 µM [inhibitor, partial curve] | 
COc1ccc(Oc2ncc3ncc(=O)n(Cc4cccc(OC)c4)c3n2)cc1 | inconclusive: 15.8 µM [inhibitor, single point] | 

SMILES | Potency | activity, negative = inhibition
Cc1cc(C)n(NC(=S)NC2CCCC2)c(=O)c1C#N | active: 17.7 µM | 
O=C(COc1ccccc1)N=C1SC2CS(=O)(=O)CC2N1c1ccccc1F (stereo not given) |  | inactive: 10.4%
CC(O)CNCCCOc1cccc(Oc2ccccc2)c1 (stereo not given) | inconclusive: 25.1 µM [inhibitor, partial curve] | 
c1ccc2c(c1)nc(N1CCOCC1)c1c3ccccc3[nH]c21 | inconclusive: 28.2 µM [inhibitor, single point] | 
CCOC(=O)c1cc(NC(=O)/C=C\C(=O)O)ccc1Cl | inconclusive: 14.1 µM [activator, partial curve] | 
NS(=O)(=O)c1ccc(N=Nc2c[nH]c(=O)c(O)c2)cc1 | active: 7.06 µM | 
Cc1noc(C)c1C(=O)N1CCC2(CCN(C(=O)NC(C)C)CC2)CC1 |  | inactive: 0.781%
Cc1cnc(CNc2cc(-c3ccoc3)ncn2)cn1 | inconclusive: 19.9 µM [inhibitor, partial curve] | 
CCc1cc2c(NCc3ccccc3)nc(C)nc2s1 | inconclusive: 22.4 µM [inhibitor, partial curve] | 
COc1ccc(Nc2ncnc3sccc23)c(OC)c1 |  | inactive: 1.25%
CC(=O)Nc1ccc(C(=O)NNC(=O)c2cccs2)cc1 |  | inactive: 5.49%
O=C(/C=C/c1ccco1)NC(=S)Nc1ccccc1Br |  | inactive: -12.7%
O=C(O)CCNC(=S)Nc1cccc(F)c1 |  | inactive: -1.33%
ONCc1ccccc1 | inconclusive: 19.9 µM [inhibitor, single point] | 
O=C(O)c1cnc(-c2ccccc2)nc1Sc1ccccc1 | inconclusive: 15.8 µM [activator, partial curve] | 
N#CC1=C(N)SC(N)=C(C#N)C1c1c(Cl)cccc1Cl | inconclusive: 5.01 µM [inhibitor, partial curve] | 
Cc1cc(C)n2cc(-c3ccc(Cl)cc3)c(C(=O)O)c2n1 | inconclusive: 9.98 µM [inhibitor, partial curve] | 
COc1ccc(CCNCc2ccccc2F)cc1 | inconclusive: 25.1 µM [inhibitor, partial curve] | 
CC(=O)Nc1ccc2c(c1)OCCOCCOc1cc(NC(C)=O)ccc1OCCO2 | inconclusive: 12.6 µM [inhibitor, partial curve] | 
COc1cc(/C=N/Nc2nncn2/N=C/c2ccc(O)c(OC)c2)ccc1O | inconclusive: 28.1 µM [inhibitor, partial curve, poor fit] | 
Cc1ccc(CNC(=O)C2CCN(S(=O)(=O)c3cccc4nonc34)CC2)cc1 |  | inconclusive: 42.4% [activator]
CCC(Sc1nc2ccncc2[nH]1)C(=O)Nc1cc(Cl)ccc1C (stereo not given) | inconclusive: 12.6 µM [inhibitor, partial curve] | 
Cc1ccccc1-n1nc(C)c2c1N=C1C(Cl)=CC(Cl)=CN1C2c1ccc(C(=O)O)cc1 (stereo not given) | active: 12.6 µM | 
COc1cc(C(=O)NC(=S)N2CCCCCC2)cc(OC)c1OC | active: 15.8 µM | 
CCNC(=O)Oc1ccc(-c2csnn2)cc1 |  | inactive: 4.49%

— PubChem BioAssay AID2451 (National Center for Advancing Translational Sciences (NCATS), 2010)
